Results taken from the supplement of paper PMC4604168 (melanoma cell lines).
This is one part of the list. Many values rest on one well or one pass, so single values are uncertain.

What follows are compounds tested on LOXIMVI (assay: cell count relative to DMSO control; melanoma cells; higher = more viable cells). Conditions: library dose: low library concentration; 72 h.
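Further: cell number obtained by counting DAPI-stained nuclei in high-throughput microscope images with image analysis software, screen run in 1,536-well plates.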

Structure (SMILES) | cell count
Nc1ccn([C@@H]2O[C@H](CO)[C@@H](O)C2(F)F)c(=O)n1 [gemcitabine] + O=c1cc(-c2cccc3c2Sc2ccccc2S3)oc(N2CCOCC2)c1 [KU55933] (first compound 0.0004 µM, partner dose 1 µM) | 115%
Nc1nc(F)nc2c1ncn2[C@@H]1O[C@H](CO)[C@@H](O)[C@@H]1O [fludarabine] + Oc1cc(-c2nc(-c3ccccc3)[nH]c2-c2ccncc2)ccc1Cl [L779450] (first compound 0.2 µM, partner dose 0.2 µM) | 183%
Nc1ccn([C@@H]2O[C@H](CO)[C@@H](O)C2(F)F)c(=O)n1 [gemcitabine] + CCN(CC)CCCCNc1ncc2cc(-c3cc(OC)cc(OC)c3)c(NC(=O)NC(C)(C)C)nc2n1 [PD173074] (first compound 0.0004 µM, partner dose 0.1 µM) | 91.8%
CC(=O)O[C@@]12CO[C@@H]1C[C@H](O)[C@@]1(C)C(=O)[C@H](O)C3=C(C)[C@@H](OC(=O)[C@H](O)[C@@H](NC(=O)OC(C)(C)C)c4ccccc4)C[C@@](O)([C@@H](OC(=O)c4ccccc4)[C@H]21)C3(C)C [Docetaxel] + CCCCCCCCCCCC1=C(O)C(=O)C=C(O)C1=O [Embelin] (first compound 0.0001 µM, partner dose 1.2 µM) | 78.1%
Nc1nc(F)nc2c1ncn2[C@@H]1O[C@H](CO)[C@@H](O)[C@@H]1O [fludarabine] + O=c1cc(-c2cccc3c2Sc2ccccc2S3)oc(N2CCOCC2)c1 [KU55933] (first compound 0.2 µM, partner dose 1 µM) | 97.6%
CO[C@H]1C[C@@H]2CC[C@@H](C)[C@@](O)(O2)C(=O)C(=O)N2CCCC[C@H]2C(=O)O[C@H]([C@H](C)C[C@@H]2CC[C@@H](OCCO)[C@H](OC)C2)CC(=O)[C@H](C)/C=C(\C)[C@@H](O)[C@@H](OC)C(=O)[C@H](C)C[C@H](C)/C=C/C=C/C=C/1C [everolimus] + O=c1cc(-c2cccc3c2Sc2ccccc2S3)oc(N2CCOCC2)c1 [KU55933] (first compound 0.02 µM, partner dose 1 µM) | 87.9%
CC(=O)O[C@@]12CO[C@@H]1C[C@H](O)[C@@]1(C)C(=O)[C@H](O)C3=C(C)[C@@H](OC(=O)[C@H](O)[C@@H](NC(=O)OC(C)(C)C)c4ccccc4)C[C@@](O)([C@@H](OC(=O)c4ccccc4)[C@H]21)C3(C)C [Docetaxel] + COc1ccc2c(c1)CCC1C2CCC2(C)C(NCCCCCCN3C(=O)C=CC3=O)CCC12 [U73122] (first compound 0.0001 µM, partner dose 0.4 µM) | 52.4%
CC(=O)O[C@@]12CO[C@@H]1C[C@H](O)[C@@]1(C)C(=O)[C@H](O)C3=C(C)[C@@H](OC(=O)[C@H](O)[C@@H](NC(=O)OC(C)(C)C)c4ccccc4)C[C@@](O)([C@@H](OC(=O)c4ccccc4)[C@H]21)C3(C)C [Docetaxel] + O=C(O)C(=O)Nc1sc2c(c1C(=O)O)CCNC2 [TCS401] (first compound 0.0001 µM, partner dose 1.66667 µM) | 80.7%
CO[C@H]1C[C@@H]2CC[C@@H](C)[C@@](O)(O2)C(=O)C(=O)N2CCCC[C@H]2C(=O)O[C@H]([C@H](C)C[C@@H]2CC[C@@H](OCCO)[C@H](OC)C2)CC(=O)[C@H](C)/C=C(\C)[C@@H](O)[C@@H](OC)C(=O)[C@H](C)C[C@H](C)/C=C/C=C/C=C/1C [everolimus] + c1cc(-c2cnn3cc(-c4ccc(OCCN5CCCCC5)cc4)cnc23)ccn1 [Dorsomorphin] (first compound 0.02 µM, partner dose 0.4 µM) | 70.3%
CC(=O)c1c(C)c2cnc(Nc3ccc(N4CCNCC4)cn3)nc2n(C2CCCC2)c1=O [palbociclib] + Oc1cc(-c2nc(-c3ccccc3)[nH]c2-c2ccncc2)ccc1Cl [L779450] (first compound 0.04 µM, partner dose 0.2 µM) | 82.4%
Nc1ncn([C@H]2C[C@H](O)[C@@H](CO)O2)c(=O)n1 [decitabine] + O=C(Nc1ccccc1)c1cc([N+](=O)[O-])ccc1Cl [GW9662] (first compound 0.1 µM, partner dose 2 µM) | 139%
Nc1nc(F)nc2c1ncn2[C@@H]1O[C@H](CO)[C@@H](O)[C@@H]1O [fludarabine] + c1cc(-c2cnn3cc(-c4ccc(OCCN5CCCCC5)cc4)cnc23)ccn1 [Dorsomorphin] (first compound 0.2 µM, partner dose 0.4 µM) | 120%
CO[C@H]1C[C@@H]2CC[C@@H](C)[C@@](O)(O2)C(=O)C(=O)N2CCCC[C@H]2C(=O)O[C@H]([C@H](C)C[C@@H]2CC[C@@H](OCCO)[C@H](OC)C2)CC(=O)[C@H](C)/C=C(\C)[C@@H](O)[C@@H](OC)C(=O)[C@H](C)C[C@H](C)/C=C/C=C/C=C/1C [everolimus] + O=C(Nc1ccccc1)c1cc([N+](=O)[O-])ccc1Cl [GW9662] (first compound 0.02 µM, partner dose 2 µM) | 85.8%
CC(=O)c1c(C)c2cnc(Nc3ccc(N4CCNCC4)cn3)nc2n(C2CCCC2)c1=O [palbociclib] + COC(=O)c1sccc1S(=O)(=O)Nc1ccc(Nc2ccccc2)cc1OC [GSK0660] (first compound 0.04 µM, partner dose 1 µM) | 77.4%
CO[C@H]1C[C@@H]2CC[C@@H](C)[C@@](O)(O2)C(=O)C(=O)N2CCCC[C@H]2C(=O)O[C@H]([C@H](C)C[C@@H]2CC[C@@H](OCCO)[C@H](OC)C2)CC(=O)[C@H](C)/C=C(\C)[C@@H](O)[C@@H](OC)C(=O)[C@H](C)C[C@H](C)/C=C/C=C/C=C/1C [everolimus] + Cn1cc(/C=C2\C(=O)Nc3cccnc32)c2ccccc21 [GW441756] (first compound 0.02 µM, partner dose 0.4 µM) | 78.1%
CO[C@H]1C[C@@H]2CC[C@@H](C)[C@@](O)(O2)C(=O)C(=O)N2CCCC[C@H]2C(=O)O[C@H]([C@H](C)C[C@@H]2CC[C@@H](OCCO)[C@H](OC)C2)CC(=O)[C@H](C)/C=C(\C)[C@@H](O)[C@@H](OC)C(=O)[C@H](C)C[C@H](C)/C=C/C=C/C=C/1C [everolimus] + CCN(CC)CCCCNc1ncc2cc(-c3cc(OC)cc(OC)c3)c(NC(=O)NC(C)(C)C)nc2n1 [PD173074] (first compound 0.02 µM, partner dose 0.1 µM) | 55.3%
Nc1ccn([C@@H]2O[C@H](CO)[C@@H](O)C2(F)F)c(=O)n1 [gemcitabine] + O=C1NC(=O)/C(=C/c2ccc(-c3ccc(F)cc3O)o2)S1 [AS252424] (first compound 0.0004 µM, partner dose 1 µM) | 83%
Nc1ccn([C@@H]2O[C@H](CO)[C@@H](O)C2(F)F)c(=O)n1 [gemcitabine] + Oc1nc(-c2ccc(C(F)(F)F)cc2)nc2c1CSCC2 [XAV939] (first compound 0.0004 µM, partner dose 2 µM) | 49%
Nc1ccn([C@@H]2O[C@H](CO)[C@@H](O)C2(F)F)c(=O)n1 [gemcitabine] + O=S(=O)(c1ccccc1)N(CC(F)(F)F)c1ccc(C(O)(C(F)(F)F)C(F)(F)F)cc1 [T0901317] (first compound 0.0004 µM, partner dose 1.4 µM) | 73.9%
Nc1nc(F)nc2c1ncn2[C@@H]1O[C@H](CO)[C@@H](O)[C@@H]1O [fludarabine] + CCc1ccc(CCOc2ccc(CC3SC(=O)NC3=O)cc2)nc1 [pioglitazone] (first compound 0.2 µM, partner dose 2 µM) | 90%
CC(=O)c1c(C)c2cnc(Nc3ccc(N4CCNCC4)cn3)nc2n(C2CCCC2)c1=O [palbociclib] + Cc1cc([N+](=O)[O-])ccc1NS(=O)(=O)c1cc(Cl)ccc1Cl [FH535] (first compound 0.04 µM, partner dose 1 µM) | 78.1%
CC(=O)O[C@@]12CO[C@@H]1C[C@H](O)[C@@]1(C)C(=O)[C@H](O)C3=C(C)[C@@H](OC(=O)[C@H](O)[C@@H](NC(=O)OC(C)(C)C)c4ccccc4)C[C@@](O)([C@@H](OC(=O)c4ccccc4)[C@H]21)C3(C)C [Docetaxel] + N#Cc1c(O)c2c(-c3ccc(-c4ccccc4O)cc3)csc2[nH]c1=O [A769662] (first compound 0.0001 µM, partner dose 2 µM) | 69.9%
Nc1ncn([C@H]2C[C@H](O)[C@@H](CO)O2)c(=O)n1 [decitabine] + COC(=O)c1sccc1S(=O)(=O)Nc1ccc(Nc2ccccc2)cc1OC [GSK0660] (first compound 0.1 µM, partner dose 1 µM) | 138%
CO[C@H]1C[C@@H]2CC[C@@H](C)[C@@](O)(O2)C(=O)C(=O)N2CCCC[C@H]2C(=O)O[C@H]([C@H](C)C[C@@H]2CC[C@@H](OCCO)[C@H](OC)C2)CC(=O)[C@H](C)/C=C(\C)[C@@H](O)[C@@H](OC)C(=O)[C@H](C)C[C@H](C)/C=C/C=C/C=C/1C [everolimus] + COc1ccc2c(c1)CCC1C2CCC2(C)C(NCCCCCCN3C(=O)C=CC3=O)CCC12 [U73122] (first compound 0.02 µM, partner dose 0.4 µM) | 85.1%
